Source: the supplement of paper PMC3334620
Whole data set: some 33,000 sequences, median “E-score (-0.5 to 0.5)” near -0.041, cut for the highest 2% near 0.37. This is one part of the list.

Biological target: T1, Ecm22 (UniProt Q05958)
T1 sequence: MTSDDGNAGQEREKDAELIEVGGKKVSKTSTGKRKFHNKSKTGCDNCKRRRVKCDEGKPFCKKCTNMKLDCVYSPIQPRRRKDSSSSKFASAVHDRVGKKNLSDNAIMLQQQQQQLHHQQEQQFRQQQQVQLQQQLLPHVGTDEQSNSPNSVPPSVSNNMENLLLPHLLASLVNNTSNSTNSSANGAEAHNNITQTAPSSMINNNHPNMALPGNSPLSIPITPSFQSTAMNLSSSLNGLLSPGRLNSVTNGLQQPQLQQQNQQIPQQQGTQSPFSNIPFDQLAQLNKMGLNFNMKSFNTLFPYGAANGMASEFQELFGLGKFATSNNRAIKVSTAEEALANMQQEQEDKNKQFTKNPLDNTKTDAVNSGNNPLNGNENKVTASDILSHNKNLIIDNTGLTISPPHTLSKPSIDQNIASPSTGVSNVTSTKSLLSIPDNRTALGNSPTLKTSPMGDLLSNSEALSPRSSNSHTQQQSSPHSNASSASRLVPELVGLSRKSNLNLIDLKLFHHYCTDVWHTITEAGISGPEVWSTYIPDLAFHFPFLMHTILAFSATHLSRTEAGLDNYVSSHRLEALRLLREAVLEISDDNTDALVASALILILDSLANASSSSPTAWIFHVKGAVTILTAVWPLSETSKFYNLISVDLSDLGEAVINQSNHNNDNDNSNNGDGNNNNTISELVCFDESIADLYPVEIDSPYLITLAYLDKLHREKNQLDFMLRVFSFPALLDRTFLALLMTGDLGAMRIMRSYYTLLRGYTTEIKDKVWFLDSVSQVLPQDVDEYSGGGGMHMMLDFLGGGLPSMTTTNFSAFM
Experiment: PBM E-score (8-mer binding enrichment) (E-score (-0.5 to 0.5)); higher = stronger / more preferred TF binding; most listed sequences are background and not binding sites
Details: protein concentration: 200 nM; construct: GST-full length
Method in brief: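 Universal all-10-mer Agilent arrays, fresh or stripped once, were converted to double-stranded form by primer extension. GST-tagged yeast transcription factors from PURExpress in vitro transcription/translation, full-length or DNA-binding domain only, were applied at about 100-200 nM and detected with fluorescent anti-GST. After masliner normalisation, the Universal PBM Analysis Suite scored each ungapped eight-base word together with its reverse complement by E-score.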

Row | Sequence | PBM E-score
1 | CCGCTTCG | 0.0334
2 | ATTGCAGG | -0.00797
3 | TTTACAAA | 0.0649
4 | ATTGAAAT | 0.111
5 | AGATGGTG | -0.0816
6 | AAACGTCA | 0.0512
7 | CCACTACG | 0.0757
8 | GGTGGGCA | -0.129
9 | GAGACAGA | 0.0492
10 | ATTCGGTC | 0.231
11 | CAACGCGA | 0.158
12 | GAACGAGA | 0.464
13 | GTTGGCCA | -0.24
14 | ACCGCGCA | 0.0956
15 | ACGGACGC | 0.0414
16 | CGTCAACC | -0.117
17 | GATATTTA | 0.0694
18 | TAGTTGCA | -0.0797
19 | CCACGACA | -0.0411
20 | CAGGGAGG | -0.326
21 | ACGCTGGA | 0.126
22 | CTGTTATC | -0.221
23 | GCCGCAGC | -0.11
24 | ACCTCATG | -0.2
25 | GGAGAATA | 0.0503

Row | Sequence | PBM E-score
26 | CGTGCGGC | -0.00073
27 | CAGAAGCG | 0.0896
28 | GCGGGTGA | -0.233
29 | GTTTTAAA | 0.0416
30 | GTGTCCAA | -0.0564
31 | GTAATTAC | 0.0498
32 | ACCGTAGC | 0.163
33 | AAGGGGAG | -0.265
34 | CGGGTAGA | 0.155
35 | CATCACCA | -0.143
36 | ATTTGCGA | 0.279
37 | CCTCCACG | -0.207
38 | CTGCAGTA | -0.184
39 | ACCTTTTC | -0.0752
40 | TCTAAAAA | -0.119
41 | TGAAAGAA | -0.0162
42 | CCCGCCGC | 0.0558
43 | GTTTGACA | 0.188
44 | CCATGTTC | -0.0183
45 | AGATCCGG | -0.0497
46 | GACGCGAA | 0.0723
47 | AAAAGAAT | 0.0163
48 | ACGCACGT | 0.15
49 | ACGATAGA | 0.257
50 | ACATAACG | 0.137

Row | Sequence | PBM E-score
51 | CCTTTATA | -0.125
52 | CCCCGTGC | 0.00973
53 | TACGACAA | 0.455
54 | CGCGTACC | 0.255
55 | ACAGGTAT | 0.136
56 | AGAAGATG | -0.0148
57 | ACCACTCC | -0.156
58 | CTACAGTC | -0.0606
59 | ATCGCGGA | -0.0158
60 | GTGCGAAC | 0.228
61 | AGCCTTTA | -0.0987
62 | AGAATGTA | -0.0174
63 | GGTTGCAA | 0.0115
64 | CCCGAACA | -0.0699
65 | CGAAATTC | 0.0905
66 | AAGTACCT | -0.0784
67 | ATGCTGGC | -0.254
68 | ACGATCAC | 0.182
69 | ATTGGTTA | -0.0128
70 | AATAGCCC | -0.234
71 | AACTGCTT | -0.169
72 | CGGAAATA | 0.15
73 | TACGCGGA | 0.21
74 | ACGCCGCG | 0.093
75 | CCCTAGAA | 0.0176

Row | Sequence | PBM E-score
76 | ACACGTAT | 0.254
77 | CAGAACGG | 0.075
78 | CGTCCCGA | 0.0631
79 | CTACCGAC | 0.0524
80 | ATTTTGAC | -0.0484
81 | AAAACGGT | -0.0632
82 | GCCCAGCC | -0.171
83 | GACTATAA | -0.164
84 | AACCACCC | -0.173
85 | ACTGATCC | -0.11
86 | AAACAAAT | 0.137
87 | GCAAAACC | -0.142
88 | CTGAAACC | -0.173
89 | AATCACAG | 0.0551
90 | CAATTACG | 0.0313
91 | AGCATACT | 0.0121
92 | ATTTGATA | 0.157
93 | AGATCTAG | -0.225
94 | CCATACTA | -0.0572
95 | GCCTCGAC | -0.0771
96 | ACGTAAGG | -0.0756
97 | ATAGATAT | 0.107
98 | ACAACCTG | -0.0952
99 | ATACACCA | -0.107
100 | AGTGGGAG | -0.168

Row | Sequence | PBM E-score
101 | AGTGTCGC | 0.0578
102 | ATTTTCCC | -0.145
103 | GGCACACC | -0.145
104 | CGACTAAG | 0.0685
105 | GTATTTAA | 0.148
106 | TCTACGAA | 0.312
107 | TCTGCAGA | 0.0933
108 | AGGGCCGA | -0.0414
109 | ACGCGGCA | 0.0289
110 | CGGTAGCA | -0.222
111 | CAGGATGC | 0.0055
112 | AAGCATGC | -0.128
113 | AGCTGTGC | 0.00514
114 | GAAAAGAA | 0.0308
115 | GAGGATAA | -0.0543
116 | ACTGAACA | 0.019
117 | AGGGCTGA | -0.196
118 | AGGTAGCG | 0.058
119 | TACACATA | 0.0407
120 | ACGCCGGC | 0.0119
121 | GCATATGC | 0.00244
122 | AGCAAGAG | -0.216
123 | AAGTAAAT | -0.146
124 | ATGGACAC | -0.0733
125 | CTGCTTTC | -0.11

Row | Sequence | PBM E-score
126 | CTCCAATC | -0.0044
127 | CAGACACG | 0.121
128 | GCCCAACC | 0.0862
129 | ATATTGTC | 0.111
130 | AAGAGCCT | -0.177
131 | AACGTGTG | -0.0203
132 | ATGCTAAG | -0.258
133 | GTCAGATA | -0.0728
134 | ACGCTCAC | 0.0568
135 | CTGATTGC | -0.203
136 | GATACAGC | -0.0604
137 | TCTTAAGA | -0.135
138 | AAATCGGG | -0.156
139 | ATATCTAA | 0.0856
140 | CTCGGAGA | 0.0218
141 | GTCCTAGA | -0.188
142 | AAACCATG | -0.0146
143 | TGACGTCA | -0.0699
144 | GAACTACC | -0.0337
145 | ATCATAGC | -0.0799
146 | AGAACAGC | -0.0781
147 | GAACACGC | 0.0656
148 | CTAATCTA | -0.0176
149 | CTGCTGAC | 0.093
150 | CTATGGGA | -0.161

Row | Sequence | PBM E-score
151 | AAGTGCCC | -0.34
152 | ACCTTTCA | -0.0376
153 | ACGCGGCG | 0.107
154 | GACGATCC | 0.00412
155 | GGCGTAAC | -0.0339
156 | AAATACTT | -0.0709
157 | ATGATACA | -0.0736
158 | ACATACGC | 0.221
159 | TGTAAGAA | 0.0478
160 | CAATCACG | 0.0345
161 | AATAATGG | -0.062
162 | TAACTAGA | -0.134
163 | GGTAGATA | 0.0794
164 | CGGTTATC | 0.216
165 | ATAAACAG | -0.141
166 | ACTGAATA | -0.0244
167 | AACCCGCT | -0.238
168 | AGAGACCA | -0.136
169 | AACGACTA | 0.372
170 | CTTAGGTA | -0.0284
171 | CGAGGTAA | 0.282
172 | TCCGGCAA | -0.0482
